The target of the assay is T1, recombinant GST-PPIL2 (1-520) (UniProt Q13356 1-520).
T1 construct: peptidylprolyl isomerase-like 2 (PPIL2), residues 1-520; also called GST-tagged PPIL2; pGEX6p-3-GST-PPIL2 (1-520); source: recombinant, prokaryotic expression vector pGEX6p-3
T1 sequence (looked up): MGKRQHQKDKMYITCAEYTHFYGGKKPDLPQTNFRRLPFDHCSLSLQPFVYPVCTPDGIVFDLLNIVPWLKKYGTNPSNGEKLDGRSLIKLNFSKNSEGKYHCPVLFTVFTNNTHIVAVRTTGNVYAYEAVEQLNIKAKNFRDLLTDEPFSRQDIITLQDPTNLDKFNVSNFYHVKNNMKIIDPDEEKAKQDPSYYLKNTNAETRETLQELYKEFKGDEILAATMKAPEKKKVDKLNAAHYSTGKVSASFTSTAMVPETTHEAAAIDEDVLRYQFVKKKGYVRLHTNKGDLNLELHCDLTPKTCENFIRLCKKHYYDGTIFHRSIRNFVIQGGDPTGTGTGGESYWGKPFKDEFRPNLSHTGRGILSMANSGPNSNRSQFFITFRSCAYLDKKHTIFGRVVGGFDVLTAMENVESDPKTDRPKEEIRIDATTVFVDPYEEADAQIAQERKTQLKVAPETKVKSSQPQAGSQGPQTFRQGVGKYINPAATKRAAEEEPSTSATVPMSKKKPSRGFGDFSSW
Nature of the assay: pull-down; His pulldown: 100 μg His-p53 protein with 100 μg GST-PPIL2 and MagneHis beads overnight at 4°C; washes with TENT buffer (1% Triton X-100, 140 mM NaCl, 2 mM EDTA, 20 mM Tris pH 8.0). Conditions: both partners purified.

B1: recombinant His-p53-([…]) (domain or fragment)
chain: not shown
notes: also called pET15b-His-p53 ([…]); source: recombinant, prokaryotic expression vector pET15b
As to B1, the binding result was “binds”.

(Values after publication PMC12208539, “PPIL2 is a target of the JAK2/STAT5 pathway and promotes myeloproliferation via degradation of p53” (The Journal of Clinical Investigation, 2025).)
